# According to publication PMC9911399, “Two distinct binding modes provide the RNA-binding protein RbFox with extraordinary sequence specificity”:
# Changes are numbered by the printed parent chain; changes in the protein carry UniProt numbers. The list shows a part of the results.
# T1: RBFOX1 RRM (Homo sapiens, UniProt Q9NWB1 109-208)
# T1 sequence: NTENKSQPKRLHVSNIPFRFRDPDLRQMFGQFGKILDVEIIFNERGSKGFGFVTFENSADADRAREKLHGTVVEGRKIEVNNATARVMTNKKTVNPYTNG
# B1: UAGGUCA (DNA:RNA)
# RNA: GGGAGACCGGAAUUCAGAUUGUCCUAGGUCAUUAAAUCCCGUCGUAGCCACCA
# DNA 1: CAATCTGAATTCCGGTCTCCC
# DNA 2: TGGTGGCTACGACGGGATT
# B2: CGCUACA (DNA:RNA)
# RNA: B1 RNA with U25C, A26G, G27C, G28U, U29A
# DNA 1: CAATCTGAATTCCGGTCTCCC
# DNA 2: TGGTGGCTACGACGGGATT
# B3: GCGGCUA (DNA:RNA)
# RNA: B1 RNA with U25G, A26C, U29C, C30U
# DNA 1: CAATCTGAATTCCGGTCTCCC
# DNA 2: TGGTGGCTACGACGGGATT
# B4: ACAAAGA (DNA:RNA)
# RNA: B1 RNA with U25A, A26C, G27A, G28A, U29A, C30G
# DNA 1: CAATCTGAATTCCGGTCTCCC
# DNA 2: TGGTGGCTACGACGGGATT
# B5: AUUGAGG (DNA:RNA)
# RNA: B1 RNA with U25A, A26U, G27U, U29A, C30G, A31G
# DNA 1: CAATCTGAATTCCGGTCTCCC
# DNA 2: TGGTGGCTACGACGGGATT
# B6: AACGGUA (DNA:RNA)
# RNA: B1 RNA with U25A, G27C, U29G, C30U
# DNA 1: CAATCTGAATTCCGGTCTCCC
# DNA 2: TGGTGGCTACGACGGGATT
# B7: UCCAAAG (DNA:RNA)
# RNA: B1 RNA with A26C, G27C, G28A, U29A, C30A, A31G
# DNA 1: CAATCTGAATTCCGGTCTCCC
# DNA 2: TGGTGGCTACGACGGGATT
# B8: CUUAUGU (DNA:RNA)
# RNA: B1 RNA with U25C, A26U, G27U, G28A, C30G, A31U
# DNA 1: CAATCTGAATTCCGGTCTCCC
# DNA 2: TGGTGGCTACGACGGGATT
# B9: CGCACCG (DNA:RNA)
# RNA: B1 RNA with U25C, A26G, G27C, G28A, U29C, A31G
# DNA 1: CAATCTGAATTCCGGTCTCCC
# DNA 2: TGGTGGCTACGACGGGATT
# B10: GAAAACC (DNA:RNA)
# RNA: B1 RNA with U25G, G27A, G28A, U29A, A31C
# DNA 1: CAATCTGAATTCCGGTCTCCC
# DNA 2: TGGTGGCTACGACGGGATT
# B11: AUCACUU (DNA:RNA)
# RNA: GGGAGACCGGAAUUCAGAUUGUCCAUCACUUUUAAAUCCCGUCGUAGCCACCA
# DNA 1: CAATCTGAATTCCGGTCTCCC
# DNA 2: TGGTGGCTACGACGGGATT
# B12: CUCAGCG (DNA:RNA)
# RNA: B11 RNA with A25C, C29G, U30C, U31G
# DNA 1: CAATCTGAATTCCGGTCTCCC
# DNA 2: TGGTGGCTACGACGGGATT
# B13: UAAGUCU (DNA:RNA)
# RNA: B1 RNA with G27A, A31U
# DNA 1: CAATCTGAATTCCGGTCTCCC
# DNA 2: TGGTGGCTACGACGGGATT
# B14: GAUUCUU (DNA:RNA)
# RNA: B11 RNA with A25G, U26A, C27U, A28U
# DNA 1: CAATCTGAATTCCGGTCTCCC
# DNA 2: TGGTGGCTACGACGGGATT
# B15: UGCAUUA (DNA:RNA)
# RNA: B11 RNA with A25U, U26G, C29U, U31A
# DNA 1: CAATCTGAATTCCGGTCTCCC
# DNA 2: TGGTGGCTACGACGGGATT
# B16: UACGGGC (DNA:RNA)
# RNA: B1 RNA with G27C, U29G, C30G, A31C
# DNA 1: CAATCTGAATTCCGGTCTCCC
# DNA 2: TGGTGGCTACGACGGGATT
# B17: GAUAUUC (DNA:RNA)
# RNA: B11 RNA with A25G, U26A, C27U, C29U, U31C
# DNA 1: CAATCTGAATTCCGGTCTCCC
# DNA 2: TGGTGGCTACGACGGGATT
# B18: GCUGACG (DNA:RNA)
# RNA: B1 RNA with U25G, A26C, G27U, U29A, A31G
# DNA 1: CAATCTGAATTCCGGTCTCCC
# DNA 2: TGGTGGCTACGACGGGATT
# B19: AGAUGAG (DNA:RNA)
# RNA: B11 RNA with U26G, C27A, A28U, C29G, U30A, U31G
# DNA 1: CAATCTGAATTCCGGTCTCCC
# DNA 2: TGGTGGCTACGACGGGATT
# B20: UGAGAAG (DNA:RNA)
# RNA: B1 RNA with A26G, G27A, U29A, C30A, A31G
# DNA 1: CAATCTGAATTCCGGTCTCCC
# DNA 2: TGGTGGCTACGACGGGATT
# Biological target: T1, RBFOX1 RRM
# Assay: EMSA; HiTS-Eq, 1 nM pool, 10 min; buffer printed only for the single-RNA assays: 10 mM Tris pH 7.5, 150 mM NaCl, 3.4 mM EDTA, 0.001% NP-40, 30 C
# Conditions: tags: His6 N-terminal (pET28a); label: 5' 32P
# Procedure, shortened: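 Relative association constants, normalised to the cognate motif, were derived by comparing read counts of each RNA species with those of the control reaction. The RNA sequenced was the free fraction, separated by 8% native PAGE after a 10 min equilibration in 50 µL of 1 nM 5′-radiolabelled RNA (7 randomized nucleotides) with increasing concentrations of purified wild-type or mutant RbFox RRM.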
row,Binder,binding signal
1,B1,0.0102 KA relative to UGCAUGU
2,B2,0.0104 KA relative to UGCAUGU
3,B3,0.0205 KA relative to UGCAUGU
4,B4,0.00132 KA relative to UGCAUGU
5,B5,0.0112 KA relative to UGCAUGU
6,B6,0.00847 KA relative to UGCAUGU
7,B7,0.00328 KA relative to UGCAUGU
8,B8,0.00864 KA relative to UGCAUGU
9,B9,0.00744 KA relative to UGCAUGU
10,B10,0.000838 KA relative to UGCAUGU
11,B11,0.000469 KA relative to UGCAUGU
12,B12,0.00772 KA relative to UGCAUGU
13,B13,0.0111 KA relative to UGCAUGU
14,B14,0.011 KA relative to UGCAUGU
15,B15,0.0146 KA relative to UGCAUGU
16,B16,0.00384 KA relative to UGCAUGU
17,B17,0.00674 KA relative to UGCAUGU
18,B18,0.022 KA relative to UGCAUGU
19,B19,0.0142 KA relative to UGCAUGU
20,B20,0.0158 KA relative to UGCAUGU
